The results in this text go back to PubChem BioAssay (NCI).

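Assay format: 96-well plates, 48-hour exposure. The concentration for 50% growth inhibition is given as GI50. TGI denotes the concentration required for complete inhibition of growth.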

This assay deals with NCI-H322M lung. Kind of assay: DTP human tumour cell line panel, 48 h.
As for `O=C(CSc1nnc(-c2ccc(-c3nc4ccc(Cl)cc4[nH]3)cc2)o1)Nc1ccc(Br)cc1`, the GI50 is 3.31 µM and the TGI worked out at 16 µM.

On to `O=C(/C=C/c1ccc(Cl)cc1)c1nc2ccccc2n1Cc1ccc(F)cc1`, for which the GI50 was 16.6 µM and the TGI stood at 52.1 µM.

As for `O=C(N=Nc1c(O)[nH]c2ccc(Br)cc12)c1ccc2nc(-c3ccccc3)[nH]c2c1`, the GI50 was 2.15 µM and the TGI was found to be 5.7 µM.

For `Cc1sc2c(c1C)C(c1ccc(Cl)cc1)=N[C@@H](CC(=O)NCCCCCNC(=O)COc1ccc(C3CCC(=O)NC3=O)cc1)c1nnc(C)n1-2` (stereo partly drawn), the GI50 is 0.687 µM and the TGI is above 100 µM.

A word on the GI50: it is the concentration at which growth is held to half of that of the control. A word on the TGI: it is the concentration at which net growth stops. A low value points to greater sensitivity of the cells.
